# The RNAGym collection of RNA variant scans (doi:10.1073/pnas.2313332121)
# Variants at the floor of the assay are shown more often than the library holds them.
# B1: TPR 5TU (parent)
# chain: GGAUCUUCUCGAUCUAACAAAAAAGACAAAUCUGCCACAAAGCUUGAGAGCAUCUUCGGAUGCAGAGGCGGCAGCCUUCGGUGGCGCGAUAGCGCCAACGUUCUCAACUAUGACACGCAAAACGCGUGCUCCGUUGAAUGGAGUUUAUCAUG
# Variants of: B1
# Test: polymerase ribozyme fitness, log enrichment relative to wild type (log ratio); higher = more active; in vitro selection for triplet polymerase activity
# Outline: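 Mutant libraries for each subunit of a heterodimeric triplet polymerase ribozyme were made by PCR and then transcribed. Each library underwent one round of in vitro selection in triplicate: annealing with a biotinylated primer, the partner subunit and triplets, frozen incubation at −7 °C, gel excision of extended constructs, streptavidin-bead capture and RT-PCR. Input and output libraries were Illumina-sequenced, and only genotypes with ≥10 input reads and ≥1 read per output were kept. Fitness is the logarithm, base 2, of genotype enrichment over wild-type enrichment, computed from inverse-variance-weighted replicate averages.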
row,Variant,polymerase ribozyme fitness (log ratio)
1,C75U G81A C95U G100A,≤ -4.2
2,C75U G83A G88A U101C A120G G124A,≤ -4.2
3,C75U G83C C129A U139G,≤ -4.2
4,C75U G83U C129G U144G,≤ -4.2
5,C75U G84U C99U A115C,-3.35
6,C75U G84U U101C,-1.45
7,C75U G84U U101C A120U U151G,≤ -4.2
8,C75U G84U U134C,-1.39
9,C75U G86A C87U G133A,≤ -4.2
10,C75U G86A C93U A110G,≤ -4.2
11,C75U G86C A115U,-2.41
12,C75U G92A C108A C132U,≤ -4.2
13,C75U G92U,-2.38
14,C75U G92U C93G,-1.13
15,C75U U78A G83C A107U C116U C118U,≤ -4.2
16,C75U U82C C116A,0.695
17,C75U U82G A91C C105U G141A,≤ -4.2
18,C76A,-0.118
19,C76A A89C,-0.238
20,C76A A89U G141U,-2.94
21,C76A A91G,-3.83
22,C76A A91U,≤ -4.2
23,C76A A110U U139C G143U,≤ -4.2
24,C76A A119U U135C C149G,≤ -4.2

row,Variant,polymerase ribozyme fitness (log ratio)
1,C76A A121G,0.0173
2,C76A A122U,0.592
3,C76A A137C U144A,≤ -4.2
4,C76A A142G U146A,-1.52
5,C76A C79U C125U G140U,≤ -4.2
6,C76A C85A G143U,≤ -4.2
7,C76A C85G,-3.53
8,C76A C85U,-0.443
9,C76A C85U G100C U104G A115U,≤ -4.2
10,C76A C87U A142G,-1.46
11,C76A C93A G112U,≤ -4.2
12,C76A C93G,≤ -4.2
13,C76A C93G G100A,≤ -4.2
14,C76A C93U C105G C131U,≤ -4.2
15,C76A C95U,0.252
16,C76A C95U A142G,-1.94
17,C76A C96U A121C,0.584
18,C76A C96U G140U,-3.67
19,C76A C99A,-4.05
20,C76A C131G,-3.98
21,C76A G81A U82A C85U U127G A147U,≤ -4.2
22,C76A G83A C103A,≤ -4.2
23,C76A G83U C131A,≤ -4.2
24,C76A G84A,-0.957

row,Variant,polymerase ribozyme fitness (log ratio)
1,C76A G84A A91C A122U,≤ -4.2
2,C76A G84A U134G,-2.67
3,C76A G86A,-2.06
4,C76A G86A U102G G140A,≤ -4.2
5,C76A G86C C87G C108A C114U,≤ -4.2
6,C76A G88C,≤ -4.2
7,C76A G88U G94U C132G U139C,≤ -4.2
8,C76A G128C,-3.67
9,C76A G140C,-3.36
10,C76A G152A,-2.86
11,C76A U90C U146G,≤ -4.2
12,C76A U145G,-0.329
13,C76G,≤ -4.2
14,C76G A91C,≤ -4.2
15,C76G A91U A106G U135A,≤ -4.2
16,C76G A120G,≤ -4.2
17,C76G C79U C85U C132U,≤ -4.2
18,C76G C85A,≤ -4.2
19,C76G C87G U90A A121C A122U,≤ -4.2
20,C76G C87U C103U U109C A110G,≤ -4.2
21,C76G C93U,≤ -4.2
22,C76G C95U A97U U145G A150C,≤ -4.2
23,C76G C96A A122U,≤ -4.2
24,C76G C96A G140A,≤ -4.2

row,Variant,polymerase ribozyme fitness (log ratio)
1,C76G C96A U104G G112C,≤ -4.2
2,C76G C96U C125G A150C,≤ -4.2
3,C76G C103G U104G U135C,≤ -4.2
4,C76G C105A G152U,≤ -4.2
5,C76G C105G,≤ -4.2
6,C76G C105G U111C,≤ -4.2
7,C76G G80C C105U,≤ -4.2
8,C76G G81A U90G C93U A98U A122U,≤ -4.2
9,C76G G83A U139A U146C U148C,≤ -4.2
10,C76G G88A C93G G100U,≤ -4.2
11,C76G G88C,≤ -4.2
12,C76G G88C U104A A137G A138G,≤ -4.2
13,C76G G88U A91G U135A A138C,≤ -4.2
14,C76G G92U C105A G141C,≤ -4.2
15,C76G G94C,≤ -4.2
16,C76G G94U C96G U111A,≤ -4.2
17,C76G G128A,≤ -4.2
18,C76G G140U U151G,≤ -4.2
19,C76G G143U G152U,≤ -4.2
20,C76G U78C C93U C103G A137G,≤ -4.2
21,C76G U82A,≤ -4.2
22,C76G U146G U148G,≤ -4.2
23,C76U,0.0494
24,C76U A115C,-0.614

row,Variant,polymerase ribozyme fitness (log ratio)
1,C76U A122U,0.0697
2,C76U A137G,-0.882
3,C76U C79A C93U C116A C118A,≤ -4.2
4,C76U C79U G83U G94A C105U C118G C132G G136A,≤ -4.2
5,C76U C85A,-2.44
6,C76U C85A U111C C114A,≤ -4.2
7,C76U C85G,-0.632
8,C76U C85G A147C,-0.612
9,C76U C85U,-2.03
10,C76U C85U A91U,≤ -4.2
11,C76U C85U C96U C108A C116A,≤ -4.2
12,C76U C85U U101C U145G,-0.2
13,C76U C87G C125G,≤ -4.2
14,C76U C87G U101G,≤ -4.2
15,C76U C87U C116A A122U U146G,-3.7
16,C76U C87U U102C,-1.82
17,C76U C93G C99U C114G U151C,≤ -4.2
18,C76U C93U,-2.28
19,C76U C96A,0.322
20,C76U C96U A97G C99U C103G,≤ -4.2
21,C76U C103A U130C,≤ -4.2
22,C76U C105G,-3.71
23,C76U C118A,-2.21
24,C76U G81A C99U,-0.44

row,Variant,polymerase ribozyme fitness (log ratio)
1,C76U G83C C118U,-0.363
2,C76U G84A A110U C118A G140A,≤ -4.2
3,C76U G84A C85A C129U U134C,≤ -4.2
4,C76U G84A U101A,-0.872
5,C76U G84U C125U G141U,-3.46
6,C76U G84U U109C U130G G140A,≤ -4.2
7,C76U G88A C108G A115U G143C U146A,≤ -4.2
8,C76U G88C U104G A150G,≤ -4.2
9,C76U G88U,≤ -4.2
10,C76U G94A,1.11
11,C76U G94A C99G G126C G141A,≤ -4.2
12,C76U G94A C105U,-0.337
13,C76U G117A,0.649
14,C76U G143A,-1.28
15,C76U U77C C93A,≤ -4.2
16,C76U U78A A107U G126A,≤ -4.2
17,C76U U82A A115U A147C,≤ -4.2
18,C76U U82A C129G U151C,≤ -4.2
19,C76U U82G G83A C105A U134C U146A U148G,≤ -4.2
20,C76U U135C,-2.53
21,C76U U139G,-0.649
22,C76U U144A,-1.08
23,U77A A107G,≤ -4.2
24,U77A A107U,≤ -4.2

row,Variant,polymerase ribozyme fitness (log ratio)
1,U77A C79G C108U C116U G140C U144A,≤ -4.2
2,U77A C85G U144G,≤ -4.2
3,U77A C85U G92C C99G U104C G140C,≤ -4.2
4,U77A C85U G94U U102C G143U,≤ -4.2
5,U77A C87U A119U C125G U139G,≤ -4.2
6,U77A C93A A113C,≤ -4.2
7,U77A C93U,≤ -4.2
8,U77A G80C G141A,≤ -4.2
9,U77A G83U C85A G94C G124A A147U,≤ -4.2
10,U77A G84A U102C U144C U148A C149G,≤ -4.2
11,U77A G88U,≤ -4.2
12,U77A G94A G140A,≤ -4.2
13,U77A U78A C85G C93G C125U A137G,≤ -4.2
14,U77A U90A G133U A142C,≤ -4.2
15,U77A U134G,≤ -4.2
16,U77C A110C C114U G124U,≤ -4.2
17,U77C C85A C108A U111C A113U,≤ -4.2
18,U77C C85G C116U G143C,≤ -4.2
19,U77C C87G G88A A121C G141A,≤ -4.2
20,U77C C95G C96G A97C U151C,≤ -4.2
21,U77C C96A A113U A150C,≤ -4.2
22,U77C C116U,-3.64
23,U77C G80U A91U A142U U144C,≤ -4.2
